Hit rate of the full screen: of about 48,000 compounds, about 450 (0.94%) were called active. Roughly 19% stayed inconclusive and do not appear here. Calls come from the whole dose curve; as a rule, active = well fitted inhibition curve with a large enough effect; inconclusive = small, poorly fitted or top-dose-only effect; inactive = no such curve, though single readings can be large or run the other way. The list shows a part of the results.
experiment: Primary qHTS for Identification of Small Molecule Inhibitors of Huntingtin Promoter Activity; conditions: HEK293 HTT promoter firefly luciferase reporter (activity 0% = vehicle and -100% = no light), 24 h; series mostly up to 57.5 µM; activity change, negative = inhibition: at the top concentration; note: nearly all actives have a fitted effect of over 50% in size
Outline: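 HEK293 Fluc reporter, 2,500 cells/well, 24 h pre-culture; cpds up to 57.5 uM final, 24 h 37 degrees C; Dual-Glo, 10 min RT; normalized vehicle = 0%, zero RLU = -100%.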

Activity change, negative = inhibition, inactive:
O=C(CN1C(=O)COc2ccc(S(=O)(=O)N3CCCC3)cc21)N1CCN(c2ccccc2)CC1 -8.58%
O=C(CSc1ncc2c(n1)-c1ccc(Cl)cc1N(Cc1ccccc1)S2(=O)=O)Nc1ccc(F)c(F)c1 -21.4%
COc1ccc2c(Sc3ccccc3)c(C(=O)NCCc3ccc(Cl)cc3)[nH]c2c1 5.18%
CCOC(=O)C1CCCN(CC(=O)N2CCCc3c2c(=O)oc2ccc(OCc4ccccc4)cc32)C1 (stereo not given) -28%
CCN1CCN(CCCNC(=O)c2cc3c(s2)-c2ccccc2OC3)CC1 12.3%
COc1cc(OC)cc(C(=O)Nc2cc(-c3nc4cc(Cl)ccc4o3)ccc2Cl)c1 51.5%
CCc1ccc(NC(=O)c2sc3ncnc(N(C)C4CCCCC4)c3c2C)cc1 -29.7%
CCOc1ccc(C2C(C(N)=O)=C(C)Nc3nc(SCc4ccccc4)nn32)cc1 (stereo not given) -5.06%
CC(=O)C1=C(c2ccc(C)cc2)N(C(C)=O)n2c(nnc2C2CCCCC2)S1 -10.5%
CCCCNC(=O)CSc1nc2ccccc2nc1Cc1ccc(C)cc1 -7.79%
COc1cccc(CN2C(=O)c3ccccc3Sc3ccc(C(=O)N(C)Cc4ccccc4)cc32)c1 -29.9%
COc1cccc2cc(-c3nc(Nc4cccc(C)c4)sc3C)c(=O)oc12 -22.6%
O=C(c1cccs1)c1cn(CCOc2ccccc2F)c2ccccc12 -6.34%
COc1cc(C2c3c(-c4ccccc4O)n[nH]c3C(=O)N2CCO)ccc1OCc1ccccc1 (stereo not given) -28.3%
CCOC(=O)c1ccccc1NC(=O)c1c2c(nc3ccccc13)C(=O)N(C1CCCCC1)C2 -11.9%
COc1ccc(C(=O)Nc2nc3nc(C)c(Cc4ccccc4)c(=O)n3[nH]2)cc1OC -12.6%
Cc1ccc(CNC(=O)COCc2cc(-c3cccs3)on2)cc1 -6.72%
CCOc1ccc(CNC(=O)C2CCN(S(=O)(=O)N3CCC(C)CC3)CC2)cc1OC -6.25%
CC1=C(C(=O)Nc2cccnc2)C(c2cccc(Br)c2)n2nc(SCc3ccccc3)nc2N1 (stereo not given) -6.4%
COc1cc(NC(=O)C2CCN(c3cnc4ccccc4n3)CC2)cc(OC)c1OC -16.2%
CCCc1cc(=O)n2[nH]c(NC(=O)c3ccc(C(C)(C)C)cc3)nc2n1 -24%
CC1=C(C(=O)Nc2ccccc2C)C(c2ccncc2)n2nc(SCc3ccccc3Cl)nc2N1 (stereo not given) -15.2%
Cc1cccc(-c2noc(-c3ccccc3NC(=O)C3CC(=O)N(c4ccccc4C)C3)n2)c1 (stereo not given) 9.54%
CCn1c(=O)c2cc(C(=O)Nc3cc(OC)c(OC)c(OC)c3)sc2c2ccccc21 -6.69%
Cn1ccc2cc(S(=O)(=O)N3CCCC(C(=O)NCc4ccccc4)C3)ccc21 (stereo not given) 0%
O=C(COc1ccc(F)cc1)OCc1cc(=O)n2nc(C3CCCCC3)sc2n1 -8.62%
Cc1cc(-c2ccc(C)c(S(=O)(=O)NC(c3cccs3)C(C)C)c2)on1 (stereo not given) -46.5%
O=C(NCCS(=O)(=O)N1CCN(c2ccccc2)CC1)C1CC(=O)N(c2ccc(F)cc2)C1 (stereo not given) -7.96%
COc1ccc(NC(=O)CCSc2nc(-c3ccc(OC)cc3)cc(C(F)(F)F)n2)cc1 -5.34%
CCc1nnc(SCc2c(F)cccc2Cl)c2cc3sccc3n12 4.45%
Cc1ccc(NC(=O)Cn2cc(C(=O)C3CC3)c3ccccc32)c(C)c1 8.68%
CC(C)CCNC(=O)c1ccc2c(c1)NC(=O)C(CS(=O)(=O)Cc1ccc(F)cc1)N2 (stereo not given) -2.81%
CC1=C(C(=O)N2CCN(c3cc(C)ccc3C)CC2)C2(CCC(C)CC2)OC1=O (stereo not given) -9.88%
COc1ccc(C(C(=O)NCc2ccccc2)N(C(=O)Cn2nnc3ccccc32)c2cccc(OC)c2)cc1 (stereo not given) -6.5%
CCOc1ccc(NC(=O)C2(c3cccs3)CCOCC2)cc1 -3.27%
Cc1cc(C)c2sc(NC(=O)c3ccc(S(=O)(=O)N4CCCC4)cc3)nc2c1 -15.5%
CCOC(=O)c1cccc(NC(=O)CCc2nc3cccnc3n2-c2ccccc2)c1 -30.5%
CNC(=O)Oc1ccc2c(c1)[C@]1(C)CCN(C)[C@@H]1N2C 11.4%
COc1ccccc1C(=O)Nc1nc2nc(C)cc(=O)n2[nH]1 -0.789%
O=C(CN1C(=O)COc2ccc(S(=O)(=O)NC3CCCC3)cc21)Nc1ccc(Cl)cc1F -18.2%
O=C(O)CSCC(=O)NC1CCSC1=O (stereo not given)
CCOC(=O)c1c(C)[nH]c(CCC(=O)Nc2cc(Cl)ccc2OC)c1C -29.8%
Cc1nc(N2CCOCC2)c2c(C(=O)NCc3ccc(Cl)cc3)c(C)oc2n1 1.24%
CCc1ccc(NC(=O)c2nc3nc(C)cc(C(F)F)n3n2)cc1 32%
CN(C)S(=O)(=O)N(CC(=O)Nc1ccc(C(F)(F)F)cc1)c1ccccc1 -27.7%
Cc1ccc(OCCSc2nc3ccc(NC(=O)c4cccs4)cc3s2)cc1 -17.6%
COc1cc(OC)cc(C(=O)NCCc2csc3nc(-c4ccccc4F)nn23)c1 -7.68%
COc1cccc(CNC(=O)c2cc(-c3ccc(Cl)cc3)n[nH]2)c1 10.2%
CCC(CC)c1nn2c(=O)cc(COc3ccc(NC(=O)c4cccc(C)c4)cc3)nc2s1 -7.14%
O=C(CCC(=O)N1CCSc2ccccc21)Nc1ccc(Cl)cc1 -15.5%
CCOc1cccc(C(=O)N(Cc2ccc(C)o2)C2CCS(=O)(=O)C2)c1 (stereo not given) -13.5%
COc1ccc(CNC(=O)c2ccc3c(c2)N(Cc2cc(C)ccc2C)C(=O)CS3)cc1 -15.7%
COc1ccccc1CNS(=O)(=O)c1cc(Br)cc2c1N(C(=O)C1CC1)CC2 -12.4%
COc1ccc(CNc2nc(-c3ccc(Cl)cc3)nn2S(=O)(=O)c2ccc(C)cc2)cc1 -15.6%
O=c1cc(COc2ccc(Cl)cc2Cl)nc2scc(-c3ccccc3)n12 -6.07%
COc1ccccc1OCC(=O)N(Cc1ccco1)Cc1ccccc1F -28.1%
CC(CNC(=O)c1ccc2c(c1)nc1n2CCCCC1)c1ccccc1 (stereo not given) 9.51%
CCOc1ccc(CC(=O)NC2CC(=O)N(c3cccc(F)c3)C2)cc1 (stereo not given) 0.84%
COc1ccccc1-c1nn2c(=O)cc(CN3CCN(C(=O)Nc4ccc(C)cc4Cl)CC3)nc2s1 -4.71%
CCOc1ccc(-n2c(=O)c3c(C)c(C)sc3n(CC(=O)C(C)(C)C)c2=O)cc1 -8.24%
Cc1ccc(-n2c(=O)c3c(c4cc(C)ccc4n3C)n(CC(=O)Nc3ccc(F)cc3)c2=O)cc1 -20.1%
CC(=O)c1ccc(N2CCN(C(=O)c3cn(C)c(=O)c4c3c3ccccc3n4C)CC2)cc1 19%
COc1ccc(CNC(=O)COCc2cc(-c3ccc4c(c3)OCO4)on2)cc1 -26%
COc1cc(C(=O)NCC(c2ccco2)S(=O)(=O)c2cccs2)cc(OC)c1OC (stereo not given) -22.9%
CCCCC(=O)Nc1nnc(S(=O)(=O)N(C)Cc2ccc(Cl)cc2)s1 6.78%
COCCCNc1nc2c(c(=O)n(Cc3ccc(F)cc3)c(=O)n2C)n1C -9.47%
Cc1cc(C)cc(NC(=O)CCc2c(C)nc3nc(CNC(=O)c4cccc(F)c4)nn3c2C)c1 16.6%
COc1ccc(OC)c(S(=O)(=O)NCC(c2ccc(N(C)C)cc2)N2CCOCC2)c1 (stereo not given) -3.94%
O=C(NCC(c1ccco1)S(=O)(=O)c1cccs1)c1ccccc1 (stereo not given) -8.48%
COc1ccc(N2CCN(S(=O)(=O)c3ccc(CC(C)C)cc3)CC2)cc1 -18.6%
COC(=O)c1cc2oc3ccccc3c2n1Cc1ccc(C)cc1 -17.9%
Cc1c(Cl)cccc1Nc1nn2c(=O)c3ccccc3nc2s1 12.1%
CCOC(=O)c1cc2c(=O)n3ccccc3nc2n(Cc2ccco2)c1=NC(=O)c1ccccc1Br -21.6%
CCOc1ccc(NC(=O)Cn2c(=O)n(CCCC(=O)NCCc3ccc(Cl)cc3)c(=O)c3ccccc32)cc1 -14.8%
Cc1ccc(Cn2c(SCC(=O)NCc3ccccc3)nc3ccsc3c2=O)cc1 -3.61%
Cc1ccccc1-c1noc(-c2ccc(NCC3CCCO3)c([N+](=O)[O-])c2)n1 (stereo not given) 16.9%
Cc1oc(-c2ccccc2F)nc1CS(=O)(=O)CC(=O)N1CCN(c2ccccc2)CC1 -21%
COc1ccc(-c2[nH]c(-c3ccc(O)cc3)nc2-c2ccccc2)cc1 -20.5%
Cc1ccc([N+](=O)[O-])cc1NC(=O)CN(c1ccccc1)S(=O)(=O)N(C)C -15.3%
O=C1CCCc2cc(S(=O)(=O)N3CCCC(C(=O)NCc4ccccc4)C3)ccc2N1 (stereo not given) -31.3%
CC(=O)c1cccc(NC(=O)c2nc(-c3ccccc3)n(-c3ccccc3)n2)c1 -9%
COc1cc2c(cc1OC)n(Cc1cccc(C(F)(F)F)c1)c(=O)n1nc(-c3ccccc3)nc21 -14.6%
O=C(Oc1cccc2cccnc12)c1ccccc1 -34.2%
COc1cccc(NC(=O)CCNS(=O)(=O)c2ccc3c(c2)oc(=O)n3C)c1 -13%
CCOC(=O)[C@H](CCc1ccccc1)N[C@@H](C)C(=O)N1Cc2cc(OC)c(OC)cc2C[C@H]1C(=O)O 0.885%
CCOc1ccc(NS(=O)(=O)c2cc3c(cc2Cl)NC(=O)CO3)cc1 -7.01%
Cc1cc(C)c(NC(=O)CCS(=O)(=O)c2cc3c(cc2Cl)NC(=O)CO3)c(C)c1 -11.2%
O=C(CSCn1nnc2c(=O)[nH]c(Cc3ccc(F)cc3)nc21)Nc1cccc(C(F)(F)F)c1 -14.5%
CN1CCC(OC(c2ccccc2)c2ccccc2)CC1 0.638%
CC(=O)Nc1ccc(NC(=O)CCCn2nc(C)c3sc4ccccc4c3c2=O)cc1 4.1%
COc1cc2c(cc1OC)C(COc1cccc(C(F)(F)F)c1)N(C(=O)c1ccc(S(=O)(=O)N3CCCC3)cc1)CC2 (stereo not given) -22.8%
CCn1cc(C(=O)N2CCN(c3ccc(C)cc3)C(C)C2)c(=O)c2cc(S(=O)(=O)N3CCCC3)ccc21 (stereo not given) 55.9% [at 11.5 µM]
CCC(C)NC(=O)C1CCN(S(=O)(=O)c2ccc3c(c2)CCCN3C(C)=O)CC1 (stereo not given) -8.55%
CCc1ccccc1NC(=O)C(=O)NCCCN1CCOCC1 -7.38%
CNC(=O)CCCN1C(=O)c2cccnc2Sc2ccccc21 -8.02%
